Assay results from patent US5821230A, “GnRH antagonist decapeptides” (Ferring BV, priority 1997, dated 1998).
Entries after “also recorded” stand apart in the source; their conditions may differ. Part of at least one peptide drawing is inferred or uncertain, most often the ends. Some compounds share one wording; it may come from a single statement. *1 amine or outer side, *2 acyl side, *3 side chain or, on linkers, in order; H or OH if unused. Where a SMILES comes first, the peptide text is derived from it. Side-chain parts run from the residue outwards. [ ]: non-standard residue; d: D form. The star is where a group is joined. dPhe(4-CH2NHCONH2) = NC(=O)NCc1ccc(C[C@@H](N)C(=O)O)cc1; dPhe(4-NHCONH2) = NC(=O)Nc1ccc(C[C@@H](N)C(=O)O)cc1; Phe(4-NHCONH2) = NC(=O)Nc1ccc(C[C@H](N)C(=O)O)cc1; Dihydroorotyl(S) = O=C1C[C@@H](C(=O)*)NC(=O)N1; Phe(4-CH2NH2) = NCc1ccc(C[C@H](N)C(=O)O)cc1; dPhe(4-NH2) = Nc1ccc(C[C@@H](N)C(=O)O)cc1; dPhe(4-Cl) = N[C@H](Cc1ccc(Cl)cc1)C(=O)O; Phe(4-NH2) = Nc1ccc(C[C@H](N)C(=O)O)cc1; d2Nal = N[C@H](Cc1ccc2ccccc2c1)C(=O)O; Lys(iPr) = CC(C)NCCCC[C@H](N)C(=O)O; dDap = NC[C@@H](N)C(=O)O; CO = O=C([*:1])[*:2]

Assays:
LH secretion = assay: in vivo suppression of circulating LH levels in castrated male Sprague-Dawley rats treated subcutaneously; design: species or system rat; settings: for suppression of LH compared with a reference peptide: dosage of 50 micrograms per rat sc, standard in vivo rat test as in Example 1
Procedure: The peptide is hereinafter referred to as Peptide No. 1 and is assayed in vivo to determine its effectiveness to suppress secretion of LH in rats. Measurement of circulating LH levels in castrated male Sprague-Dawley rats treated subcutaneously with the peptide is carried out as reported in C. Rivier et al. Biol. Reproduc., 1983. 29, 374-378. The peptides are first dissolved at a concentration of 1.0 or 10 mg/ml in bacteriostatic water and then further diluted in 0.04M phosphate buffer containing 0.1% BSA. Subsequent dilutions are made in phosphate buffer. The peptides are injected sc, and blood samples (300 μl) are collected under metotane anesthesia. Sera (50 […]) are tested for LH levels in duplicate using reagents provided by the National Pituitary and Hormone Distribution Program of the NIDDK. […] However, 96 hours following injection, the LH levels are only about 75% of those of the Acyline-injected rats.

[1] = hydrophilicity by RP-HPLC retention time, TEAP pH 7.0 gradient; format: physicochemical; settings: 40% to 70% Buffer B over 30 minutes; for hydrophilicity compared with a reference peptide: RP-HPLC, pH 7.0
Procedure: Hydrophilicity is tested by measuring retention time using RP-HPLC with a gradient of 40% Buffer B to 70% Buffer B over 30 minutes, with Buffer A being TEAP pH 7.0 and Buffer B being 70% CH3 CN and 30% Buffer A at pH 7.0.

Row | SMILES | suppression of LH compared with a reference peptide (LH secretion) | hydrophilicity compared with a reference peptide [1] | LH secretion relative to control levels (LH secretion; 50 μg of peptide per rat sc, first 3 days) | LH levels relative to those of the Acyline-injected rats (LH secretion; 50 μg per rat sc, 96 hours following injection) | elution ahead of Acyline in RP-HPLC (hydrophilicity) ([1]; TEAP pH 7.0)
1 | CNC(=O)NC[C@@H](NC(=O)[C@@H](Cc1ccc(Cl)cc1)NC(=O)[C@@H](Cc1ccc2ccccc2c1)NC(C)=O)C(=O)N[C@@H](CO)C(=O)N[C@@H](Cc1ccc(NC(=O)NC)cc1)C(=O)N[C@H](Cc1ccc(NC(=O)NC)cc1)C(=O)N[C@@H](CC(C)C)C(=O)N[C@@H](CCCCNC(C)C)C(=O)N1CCC[C@H]1C(=O)N[C@H](C)C(N)=O [Example 2C, Ac-β-D-2Nal-D-4Cpa-D-Dpr(methylcarbamoyl)-Ser-4Aph(methylcarbamoyl)-D-4Aph(methylcarbamoyl)-Leu-Lys(isopropyl)-Pro-D-Ala-NH2] (Ac-[d2Nal][dPhe(4-Cl)][dDap]([CO-NHMe])S[Phe(4-NH2)]([CO-NHMe])[dPhe(4-NH2)]([CO-NHMe])L[Lys(iPr)]P[dA]-NH2) | about as effective as Acyline for the suppression of LH | more hydrophilic than Acyline | – | – | –
2 | CNC(=O)NC[C@@H](NC(=O)[C@@H](Cc1ccc(Cl)cc1)NC(=O)[C@@H](Cc1ccc2ccccc2c1)NC(C)=O)C(=O)N[C@@H](CO)C(=O)N[C@@H](Cc1ccc(NC(C)=O)cc1)C(=O)N[C@H](Cc1ccc(NC(C)=O)cc1)C(=O)N[C@@H](CC(C)C)C(=O)N[C@@H](CCCCNC(C)C)C(=O)N1CCC[C@H]1C(=O)N[C@H](C)C(N)=O [Peptide No. 1, Ac-D-2Nal-(4Cl)D-Phe-D-Dpr(methylcarbamoyl)-Ser-4Aph (acetyl)-D-4Aph(acetyl)-Leu-Lys(isopropyl)-Pro-D-Ala-NH2] (Ac-[d2Nal][dPhe(4-Cl)][dDap]([CO-NHMe])S[Phe(4-NH2)](Ac)[dPhe(4-NH2)](Ac)L[Lys(iPr)]P[dA]-NH2) | about the same as the LH levels exhibited by rats similarly injected with a dose of 50 micrograms of Acyline | more hydrophilic than Acyline | less than 50% | about 75% | about 1.8 minutes
3 | CC(=O)Nc1ccc(C[C@@H](NC(=O)[C@H](Cc2ccc(CNC(=O)[C@@H]3CC(=O)NC(=O)N3)cc2)NC(=O)[C@H](CO)NC(=O)[C@@H](CCC(N)=O)NC(=O)[C@@H](Cc2ccc(Cl)cc2)NC(=O)[C@@H](Cc2ccc3ccccc3c2)NC(C)=O)C(=O)N[C@@H](CC(C)C)C(=O)N[C@@H](CCCCNC(C)C)C(=O)N2CCC[C@H]2C(=O)N[C@H](C)C(N)=O)cc1 [Example 7J, Ac-β-D-2Nal-D-4Cpa-D-Gln-Ser-4Amf(hydroorotyl)-D-4Aph(acetyl)-Leu-Lys(isopropyl)-Pro-D-Ala-NH2] (Ac-[d2Nal][dPhe(4-Cl)][dQ]S[Phe(4-CH2NH2)](Dihydroorotyl(S))[dPhe(4-NH2)](Ac)L[Lys(iPr)]P[dA]-NH2) | nearly as effective as Acyline both after 3 days and after 4 days | more hydrophilic than Acyline | – | – | –
4 | CNC(=O)NC[C@@H](NC(=O)[C@@H](Cc1ccc(Cl)cc1)NC(=O)[C@@H](Cc1ccc2ccccc2c1)NC(C)=O)C(=O)N[C@@H](CO)C(=O)N[C@@H](Cc1ccc(NC(N)=O)cc1)C(=O)N[C@H](Cc1ccc(NC(N)=O)cc1)C(=O)N[C@@H](CC(C)C)C(=O)N[C@@H](CCCCNC(C)C)C(=O)N1CCC[C@H]1C(=O)N[C@H](C)C(N)=O [Example 6, Ac-β-D-2Nal-D-4Cpa-D-Dpr(methylcarbamoyl)-Ser-4Aph(carbamoyl)-D-4Aph(carbamoyl)-Leu-Lys(isopropyl)-Pro-D-Ala-NH2] (Ac-[d2Nal][dPhe(4-Cl)][dDap]([CO-NHMe])S[Phe(4-NHCONH2)][dPhe(4-NHCONH2)]L[Lys(iPr)]P[dA]-NH2) | substantially as long acting as Acyline | more hydrophilic than Acyline | – | – | –
5 | CC(=O)Nc1ccc(C[C@@H](NC(=O)[C@H](Cc2ccc(CNC(=O)[C@@H]3CC(=O)NC(=O)N3)cc2)NC(=O)[C@H](CO)NC(=O)[C@H](CCC(N)=O)NC(=O)[C@@H](Cc2ccc(Cl)cc2)NC(=O)[C@@H](Cc2ccc3ccccc3c2)NC(C)=O)C(=O)N[C@@H](CC(C)C)C(=O)N[C@@H](CCCCNC(C)C)C(=O)N2CCC[C@H]2C(=O)N[C@H](C)C(N)=O)cc1 [Example 8G, Ac-β-D-2Nal-D-4Cpa-Gln-Ser-4Amf(hydroorotyl)-D-4Aph(acetyl)-Leu-Lys(isopropyl)-Pro-D-Ala-NH2] (Ac-[d2Nal][dPhe(4-Cl)]QS[Phe(4-CH2NH2)](Dihydroorotyl(S))[dPhe(4-NH2)](Ac)L[Lys(iPr)]P[dA]-NH2) | about as effective as Acyline over 3 days | more hydrophilic than Acyline | – | – | –
6 | CNC(=O)CC[C@@H](NC(=O)[C@@H](Cc1ccc(Cl)cc1)NC(=O)[C@@H](Cc1ccc2ccccc2c1)NC(C)=O)C(=O)N[C@@H](CO)C(=O)N[C@@H](Cc1ccc(NC(=O)[C@@H]2CC(=O)NC(=O)N2)cc1)C(=O)N[C@H](Cc1ccc(NC(C)=O)cc1)C(=O)N[C@@H](CC(C)C)C(=O)N[C@@H](CCCCNC(C)C)C(=O)N1CCC[C@H]1C(=O)N[C@H](C)C(N)=O [Example 7B, Ac-β-D-2Nal-D-4Cpa-D-Gln(methyl)-Ser-4Aph(hydroorotyl)-D-4Aph(acetyl)-Leu-Lys(isopropyl)-Pro-D-Ala-NH2] (Ac-[d2Nal][dPhe(4-Cl)][dE](NHMe)S[Phe(4-NH2)](Dihydroorotyl(S))[dPhe(4-NH2)](Ac)L[Lys(iPr)]P[dA]-NH2) | substantially as long acting as Acyline for 3 days and remains somewhat less effective through day 4 | more hydrophilic than Acyline | – | – | –
7 | CC(=O)N[C@H](Cc1ccc2ccccc2c1)C(=O)N[C@H](Cc1ccc(Cl)cc1)C(=O)N[C@H](CCC(N)=O)C(=O)N[C@@H](CO)C(=O)N[C@@H](Cc1ccc(CNC(=O)[C@@H]2CC(=O)NC(=O)N2)cc1)C(=O)N[C@H](Cc1ccc(CNC(N)=O)cc1)C(=O)N[C@@H](CC(C)C)C(=O)N[C@@H](CCCCNC(C)C)C(=O)N1CCC[C@H]1C(=O)N[C@H](C)C(N)=O [Example 7F, Ac-β-D-2Nal-D-4Cpa-D-Gln-Ser-4Amf(hydroorotyl)-D-4Amf(carbamoyl)-Leu- Lys(isopropyl)-Pro-D-Ala-NH2] (Ac-[d2Nal][dPhe(4-Cl)][dQ]S[Phe(4-CH2NH2)](Dihydroorotyl(S))[dPhe(4-CH2NHCONH2)]L[Lys(iPr)]P[dA]-NH2) | remains effective and is slightly better than Acyline after 4 days | more hydrophilic than Acyline | – | – | –
8 | CC(=O)N[C@H](Cc1ccc2ccccc2c1)C(=O)N[C@H](Cc1ccc(Cl)cc1)C(=O)N[C@@H](CCC(N)=O)C(=O)N[C@@H](CO)C(=O)N[C@@H](Cc1ccc(CNC(=O)[C@@H]2CC(=O)NC(=O)N2)cc1)C(=O)N[C@H](Cc1ccc(CNC(N)=O)cc1)C(=O)N[C@@H](CC(C)C)C(=O)N[C@@H](CCCCNC(C)C)C(=O)N1CCC[C@H]1C(=O)N[C@H](C)C(N)=O [Example 8E, Ac-β-D-2Nal-D-4Cpa-Gln-Ser-4Amf(hydroorotyl)-D-4Amf(carbamoyl)-Leu-Lys(isopropyl)-Pro-D-Ala-NH2] (Ac-[d2Nal][dPhe(4-Cl)]QS[Phe(4-CH2NH2)](Dihydroorotyl(S))[dPhe(4-CH2NHCONH2)]L[Lys(iPr)]P[dA]-NH2) | about as effective as Acyline over 4 days | more hydrophilic than Acyline | – | – | –
9 | CC(=O)Nc1ccc(C[C@@H](NC(=O)[C@H](Cc2ccc(NC(=O)[C@@H]3CC(=O)NC(=O)N3)cc2)NC(=O)[C@H](CO)NC(=O)[C@@H](CC(N)=O)NC(=O)[C@@H](Cc2ccc(Cl)cc2)NC(=O)[C@@H](Cc2ccc3ccccc3c2)NC(C)=O)C(=O)N[C@@H](CC(C)C)C(=O)N[C@@H](CCCCNC(C)C)C(=O)N2CCC[C@H]2C(=O)N[C@H](C)C(N)=O)cc1 [Example 7K, Ac-β-D-2Nal-D-4Cpa-D-Asn-Ser-4Aph(Hor)-D-Aph(acetyl)-Leu-Lys(isopropyl)-Pro-D-Ala-NH2] (Ac-[d2Nal][dPhe(4-Cl)][dN]S[Phe(4-NH2)](Dihydroorotyl(S))[dPhe(4-NH2)](Ac)L[Lys(iPr)]P[dA]-NH2) | substantially as active as Acyline in suppressing LH level for 2 days; also recorded: at 3 days it shows suppression of LH to levels less than Acyline | more hydrophilic than Acyline | – | – | –
10 | CCNC(=O)NC[C@@H](NC(=O)[C@@H](Cc1ccc(Cl)cc1)NC(=O)[C@@H](Cc1ccc2ccccc2c1)NC(C)=O)C(=O)N[C@@H](CO)C(=O)N[C@@H](Cc1ccc(NC(C)=O)cc1)C(=O)N[C@H](Cc1ccc(NC(C)=O)cc1)C(=O)N[C@@H](CC(C)C)C(=O)N[C@@H](CCCCNC(C)C)C(=O)N1CCC[C@H]1C(=O)N[C@H](C)C(N)=O [Example 2A, Ac-β-D-2Nal-D-4Cpa-D-Dpr(ethylcarbamoyl)-Ser-4Aph(acetyl)-D-4Aph(acetyl)-Leu-Lys(isopropyl)-Pro-D-Ala-NH2] (Ac-[d2Nal][dPhe(4-Cl)][dDap]([CO-NHEt])S[Phe(4-NH2)](Ac)[dPhe(4-NH2)](Ac)L[Lys(iPr)]P[dA]-NH2) | about as effective as Peptide No. 2 for the suppression of LH | about as hydrophilic as Acyline | – | – | –
